In publication PMC4336329 (PLoS ONE, 2015):
About 14,000 (4.5%) of roughly 310,000 compounds showed an effect of 50% or more. Effects have a minus sign here. This is one part of the list.

These compounds were tested against human ether-à-go-go-related gene (hERG) potassium channel (human, UniProt Q12809) (assay: primary screen, population patch clamp on CHO cells stably expressing hERG).
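Also: peak tail current of the secondary pulse compared with the same well before compound.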

Sequence of human ether-à-go-go-related gene (hERG) potassium channel (Q12809 whole entry, looked up): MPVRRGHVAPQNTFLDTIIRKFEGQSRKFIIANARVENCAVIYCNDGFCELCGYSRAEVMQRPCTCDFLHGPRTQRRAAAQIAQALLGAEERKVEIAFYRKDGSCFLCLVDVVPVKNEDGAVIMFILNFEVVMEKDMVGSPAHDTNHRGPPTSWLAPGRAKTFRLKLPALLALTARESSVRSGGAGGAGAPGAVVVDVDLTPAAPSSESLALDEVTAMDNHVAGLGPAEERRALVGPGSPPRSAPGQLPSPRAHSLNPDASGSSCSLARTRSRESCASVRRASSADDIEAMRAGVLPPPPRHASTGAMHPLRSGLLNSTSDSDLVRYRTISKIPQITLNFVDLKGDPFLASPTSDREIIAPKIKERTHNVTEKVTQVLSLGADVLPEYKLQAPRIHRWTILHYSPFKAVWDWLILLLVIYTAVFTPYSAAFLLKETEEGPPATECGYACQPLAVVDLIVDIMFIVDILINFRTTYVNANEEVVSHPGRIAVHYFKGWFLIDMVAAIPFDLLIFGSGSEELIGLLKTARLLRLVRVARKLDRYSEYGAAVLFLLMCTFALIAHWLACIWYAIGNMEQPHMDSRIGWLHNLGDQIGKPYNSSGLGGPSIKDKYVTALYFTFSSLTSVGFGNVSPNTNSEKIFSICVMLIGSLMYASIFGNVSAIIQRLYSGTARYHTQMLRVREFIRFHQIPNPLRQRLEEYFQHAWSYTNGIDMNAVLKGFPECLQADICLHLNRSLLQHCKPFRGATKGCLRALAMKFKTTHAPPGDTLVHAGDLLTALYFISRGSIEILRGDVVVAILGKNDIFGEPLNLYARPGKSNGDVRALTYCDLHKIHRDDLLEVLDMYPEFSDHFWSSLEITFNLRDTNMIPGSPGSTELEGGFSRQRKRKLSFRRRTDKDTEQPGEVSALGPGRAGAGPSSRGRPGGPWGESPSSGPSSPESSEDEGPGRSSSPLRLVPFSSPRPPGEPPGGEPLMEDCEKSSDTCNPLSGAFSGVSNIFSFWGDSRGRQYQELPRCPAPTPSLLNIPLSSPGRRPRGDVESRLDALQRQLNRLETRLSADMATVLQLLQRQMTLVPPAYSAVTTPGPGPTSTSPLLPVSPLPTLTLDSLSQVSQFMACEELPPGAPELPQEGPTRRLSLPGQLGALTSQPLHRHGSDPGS

Structure (SMILES) | hERG current change (%, negative = inhibition) at 10uM
COc1c(O)ccc2c1-c1c3c(cc4c1C(C2)N(C)CC4)OCO3 (centres unmarked) | -28.7%
O=C(Nc1ccc2nc3n(c(=O)c2c1)CCCCC3)c1ccccc1[N+](=O)[O-] | -16%
Cc1ccc(C(=O)N2CCN(c3ncc(C(F)(F)F)cc3Cl)CC2)s1 | -59.8%
COc1ccc(C(C#N)N2CCCCCC2)cc1OC (centres unmarked) | 9.63%
COc1ccccc1N(C)S(=O)(=O)c1ccc(C(=O)Nc2ccc3nc(C)sc3c2)cc1 | 11.6%
O=C(Cn1c(=O)n(CC(=O)N2CCCCC2)c(=O)c2sccc21)NCc1ccccc1 | 17%
COCC(C)N1CCC(Oc2ccc(C(=O)N3CCCC3)cc2)CC1 (centres unmarked) | 5.11%
Cc1cc(N=Nc2ccc3ccccc3c2)ccc1O | 4.25%
Cc1ccc2c(ccn3cc4c(c(=O)n(C)c(=O)n4C)c23)c1 | 17.8%
CCOc1ccc(C(=O)Nc2ccc(C(=O)N3CCOCC3)cc2)c(OCC)c1 | 1.54%
O=C(Nc1cc2c(cc1Br)OCCCO2)c1ccccc1 | -1.48%
CCn1c(O)c(N=NC(=O)CNC(=O)c2ccccc2F)c2ccccc21 | -6.97%
O=C(CN1C(=O)NC2(CCCCCC2)C1=O)N1CCN(S(=O)(=O)c2ccccc2)CC1 | 5%
COc1ccc(CNC(=O)Cn2c(=O)n(CCC(=O)N3CCCCC3)c(=O)c3sccc32)cc1 | -25.9%
CN(C)Cc1ccccc1Cc1ccccc1.O=C(O)/C=C\C(=O)O | -10.1%
CN(CC(=O)Nc1cccc(F)c1)C(=O)c1ccc(S(=O)(=O)N2CCCC2)cc1 | -4.69%
COC(=O)C1C(=O)CC(C)(O)C(C(=O)OC)C1c1ccccc1F (centres unmarked) | 12.7%
O=C(CSc1nnc(-c2ccccc2)n1-c1ccccc1)NCc1ccco1 | 1.47%
Cc1ccc(C)c(NC(=S)NNC(=O)c2ccc(Br)o2)c1 | 18.7%
O=C(Nc1ccccc1-c1nc2ccccc2s1)c1ccc(Br)o1 | 12.8%
CCOc1ccccc1-n1c(COc2ccc(C)cc2)nnc1SCC(N)=O | -5.47%
Cn1c(=O)[nH]c(=O)c2c1nc(N1CCCC1)n2CCCSc1nc2ccccc2o1 | -25.4%

Structure (SMILES) | hERG current change (%, negative = inhibition) at 10uM
CCN1CCCC1CNC(=O)c1cc2c(-c3ccc(Cl)cc3)nn(C)c2s1 (centres unmarked) | -62.4%
Cc1cc(C)c(NC2=NS(=O)(=O)c3ccccc32)c(C)c1 | -10.9%
O=C(/C=C/Nc1ccc(F)cc1F)c1cccs1 | 14.2%
Cc1nnc(SCC(=O)N2CCCCC2)s1 | -1.86%
COc1cc(C=O)ccc1Oc1cnccn1 | 19.4%
COC(=O)C1=C(C)NC(=O)NC1c1cc(Cl)ccc1OC (centres unmarked) | 7.69%
Cc1ccnc(NC(=O)c2ccc(S(=O)(=O)c3ccccc3)cc2)c1 | 10.4%
O=c1c2ccccc2nc(-c2cccs2)n1-c1cnccn1 | 4.77%
CCOC(=O)[C@@H]1[C@H]2COc3ccccc3[C@@H]2N2C(=O)N(c3ccc(Cl)cc3)C(=O)[C@]12C | 9.54%
O=C(CCN1C(=O)C2C3CC(C(Br)C3Br)C2C1=O)OCC(=O)c1cccc([N+](=O)[O-])c1 (centres unmarked) | 19%
NC(CCCCCP(=O)(c1ccccc1)c1ccccc1)C(=O)O (centres unmarked) | 9.52%
CN(C)c1oc(-c2ccccc2Cl)nc1P(=O)(c1ccccc1)c1ccccc1 | -19.6%
N#C/C(=C\c1ccco1)C(=O)Nn1cnnc1 | 9.8%
CN(CCO)S(=O)(=O)c1ccc2c(c1)C(=O)c1cc(S(=O)(=O)N(C)CCO)ccc1-2 | 7.83%
CCOC(=O)c1cc2c(nc1C)-c1cc(Cl)cc(Cl)c1OC2O (centres unmarked) | 12.8%
CC(=O)c1ccc(N2CCN(C(=O)/C=C/c3cccs3)CC2)cc1 | -25%
Oc1ccc(Br)cc1-c1nc2cnccn2c1NC1CCCC1 | -2.55%
CC(=O)N1CCN(S(=O)(=O)c2cccc(C(=O)Nc3ccc(C)cn3)c2)CC1 | -14.9%
CSc1nc(NCCCN(C)C)c2c3c(sc2n1)CN(C)CC3 | 1.56%
Nc1nccnc1C(=O)OCC(=O)NNC(=O)c1ccccc1 | 11.2%
COc1cccc(CNC(=O)CCC2CCCN(C(=O)c3cc4ccccc4o3)C2)c1 (centres unmarked) | -47.7%
CC1CCC(C(=O)NC(C(=O)NCCCN2CCOCC2)C(C)C)CC1 (centres unmarked) | -17.8%

Structure (SMILES) | hERG current change (%, negative = inhibition) at 10uM
Cc1ccc(C(=O)CSc2nnc(-c3ccccc3N)n2C)cc1 | -8.87%
CN(c1ccc(C(=O)NCCSCc2ccc(Cl)cc2)cc1)S(=O)(=O)c1ccccc1 | 1.54%
N#Cc1cccc(S(=O)(=O)N2CCN(c3ccnc4cc(Cl)ccc34)CC2)c1 | -70.7%
Cc1ccc(S(=O)(=O)C(C#N)c2nc3ccccc3nc2N2CC(C)OC(C)C2)cc1C (centres unmarked) | -7.05%
Cc1cccc(N2CCN(S(=O)(=O)c3ccc4c(c3)CCC(=O)N4)CC2C)c1 (centres unmarked) | -8.91%
COc1ccc(C(=O)NCc2nnc(SCC(=O)NCCc3ccccc3)o2)cc1 | 6.94%
CC1=C(C(=O)OC(C)C)C(c2ccc3c(c2)OCO3)NC(=O)N1 (centres unmarked) | 10.7%
CN(CCC#N)C(=O)COC(=O)c1ccccc1OCc1ccccc1Cl | 1.72%
CCOC(=O)Cc1csc(Nc2c(C)n(C)n(-c3ccccc3)c2=O)n1 | 0.0496%
CC1=CC(=O)C(C(C)C)=CC1=NC(=O)c1ccc(C)cc1 | 52.7%
CC(=O)Nc1ccc(NC(=O)C2CCCN2S(=O)(=O)c2cccc(C(F)(F)F)c2)cc1 (centres unmarked) | -11.3%
CCCCC(=O)NC(c1ccc(Cl)cc1Cl)c1ccc2cccnc2c1O (centres unmarked) | 13.5%
N=c1c(C(=O)NCc2ccc(F)cc2)cc2c(=O)n3ccccc3nc2n1CCCN1CCOCC1 | -83%
COc1ccc(C(=O)NN/C(C)=C/C(=O)C(F)(F)C(F)(F)C(F)(F)F)cc1 | -6.52%
CC(C)(C)c1ccc(C(=O)c2c[nH]c(C(=O)NCCCn3ccnc3)c2)cc1 | -71.3%
Cc1ccccc1OCC(=O)Nc1ccccc1N1CCOCC1 | -23.2%
Cc1cc(C)cc(OCC(=O)Nc2cccc(-c3nc4ncccc4o3)c2)c1 | 2.81%
COC(=O)C(Cc1c[nH]c2ccccc12)NC(=O)C(C)C (centres unmarked) | 5.3%
O=C(Nc1cccc(-c2nc3ccccc3[nH]2)c1)c1cccc(NC(=O)c2ccco2)c1 | 15.2%
COCC(=O)Nc1nnc(C2CCCCC2)s1 | -1.63%
O=C(COc1cccc2ccccc12)Nc1cc(S(=O)(=O)N2CCOCC2)ccc1N1CCOCC1 | -12.5%
Cc1ccc(-n2ncc(C(=O)O)c2C2CCN(C(=O)OC(C)(C)C)CC2)cc1 | -3.86%

Structure (SMILES) | hERG current change (%, negative = inhibition) at 10uM
Cc1cc(Br)ccc1SCC(=O)OCC(=O)NCc1ccco1 | 0.539%
CCC(CC)C(=O)Nc1nnc(S(=O)(=O)Nc2ccccc2C)s1 | 15.7%
O=C(CSc1nc2ccccc2c(=O)n1CC1CCCO1)NCCc1ccccc1 (centres unmarked) | 7.48%
O=C(NC1CC1)c1ccc2c(c1)C1C3CCC(C3)C1C(c1ccccc1)N2 (centres unmarked) | -5.38%
COc1ccccc1S(=O)(=O)Cc1ccc(C(=O)NC2CC2)o1 | 18.5%
CCc1ccccc1NC1c2ccccc2C(=O)N1Cc1ccco1 (centres unmarked) | -23.7%
N#CCn1cnc2sc(-c3ccccc3)cc2c1=O | 13.1%
CCOc1ccc(C(C)(C)C)cc1S(=O)(=O)n1nc(C)cc1C | -18.9%
Cn1cccc1/C=C(\C#N)C(N)=S | 8.65%
COC(=O)Cn1c(CCC(=O)O)ccc1-c1ccccc1 | 10.8%
CCCNC(=O)COC(=O)c1ccc(N2CCCC2)c([N+](=O)[O-])c1 | -14.6%
Cc1[nH]c2ccccc2c1C(=O)CN1CCN(c2ccc(Cl)cc2)CC1 | 12.2%
Cc1cc(NC(=O)C(C)SCC(=O)Nc2nnc(CC(C)C)s2)no1 (centres unmarked) | 8.03%
N#CC1=C(N)Oc2n[nH]c(-c3cccnc3)c2C1c1ccc([N+](=O)[O-])o1 (centres unmarked) | -1.77%
COc1ccccc1C(CNC(=O)c1cccc(NS(=O)(=O)c2ccc(Br)cc2)c1)N(C)C (centres unmarked) | -51.7%
CC(=O)C1C(=O)c2c(cccc2[N+](=O)[O-])C1=Nc1ccccc1C (centres unmarked) | -6.73%
COc1ccc(Br)cc1/C=N/NC(=O)c1cc(OC)c(OC)c(OC)c1 | 7.09%
Cn1cc(NC(=O)OCc2ccc(Cl)cc2)c(C(F)(F)F)n1 | 6.82%
COC(=O)c1cc(NC(=O)CN2CCC(C(N)=O)(N3CCCCC3)CC2)cc(C(=O)OC)c1 | -8.63%
C[C@H]1CC[C@@H]2[C@@H](C)[C@H]3[C@H](C[C@H]4[C@@H]5CC=C6C[C@@H](O[C@@H]7O[C@H](CO)[C@H](O)[C@H](O[C@@H]8O[C@H](CO)[C@@H](O)[C@H](O)[C@H]8O)[C@H]7O[C@@H]7O[C@@H](C)[C@H](O)[C@@H](O)[C@H]7O)CC[C@]6(C)[C@H]5CC[C@]34C)N2C1 | 20.4%
